Experimental data as given in PubChem BioAssay AID485344 (National Center for Advancing Translational Sciences (NCATS), 2010).
Screen size: about 340,000 compounds; about 6,900 (2%) were called active. No stated cut-off is given here; in the data, active means inhibition above about 30%; inactive means below that, where a call was filed. This is a selection; strong and weak results do not stand in their true shares. The source gives no active or inactive call for entries shown without one.

Biological target: D(2) dopamine receptor (Homo sapiens) (UniProt P14416)
Assay: HTS Assay for Allosteric Antagonists of the Human D2 Dopamine Receptor: Primary Screen for Antagonists; further: 0% is about no effect
Settings: HEK293 TREx D2 cells, calcium flux, dopamine EC80; at 10 µM; stronger effect = higher value
Method in brief: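 Overnight-induced (tetracycline, 30 C) HEK293 T-REx cells carrying force-coupled D2 receive a no-wash calcium dye, then compound, then EC80 dopamine at 180 s; signals are read kinetically throughout.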

Sequence of UniProt P14416 (P14416 whole entry, looked up): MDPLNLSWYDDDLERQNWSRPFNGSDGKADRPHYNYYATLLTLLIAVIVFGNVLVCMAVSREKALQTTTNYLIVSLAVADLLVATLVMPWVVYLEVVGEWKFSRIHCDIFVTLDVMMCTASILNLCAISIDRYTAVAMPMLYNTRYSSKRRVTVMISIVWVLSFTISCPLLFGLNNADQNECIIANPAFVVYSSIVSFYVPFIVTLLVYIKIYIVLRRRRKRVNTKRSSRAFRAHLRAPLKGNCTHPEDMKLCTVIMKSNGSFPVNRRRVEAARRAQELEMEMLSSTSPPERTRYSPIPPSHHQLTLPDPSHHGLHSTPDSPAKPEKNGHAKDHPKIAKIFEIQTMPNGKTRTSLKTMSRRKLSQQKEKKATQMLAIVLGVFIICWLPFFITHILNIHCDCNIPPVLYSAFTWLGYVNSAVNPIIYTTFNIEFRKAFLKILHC

| SMILES | inhibition |
| --- | --- |
| CCOC(=O)C1=C(CN2CCC(C(=O)OCC)CC2)NC(=O)NC1c1ccc(Cl)cc1 (stereo not drawn) | -0.0644% |
| Cc1oc(-c2ccccc2)nc1CNC(=O)Nc1ccccc1 | -23.9% |
| Cc1nn(C)c2c1c(C(F)(F)F)cc(=O)n2CC(=O)NCc1ccccc1Cl | 3.57% |
| Cc1cc(F)ccc1NC(=O)c1sc2nc(-c3cccs3)ccc2c1N | -7.82% |
| CCc1cccc(CC)c1NC1=NS(=O)(=O)c2ccccc21 | 20% |
| CC(C)OCCCN1C(=O)c2[nH]nc(-c3ccccc3O)c2C1c1ccc(OCc2ccccc2)cc1 (stereo not drawn) | 13.9% |
| CCOc1ccccc1NC(=O)C(C)Sc1nc2c(c(=O)[nH]1)CCCC2 (stereo not drawn) | 8.21% |
| Cc1ccc(CC(=O)Nc2c(C(=O)N3CCN(c4ccccc4F)CC3)oc3ccccc23)cc1 | 18.2% |
| Cc1ccc(NS(=O)(=O)c2ccc3c(c2)NC(=O)CCS3)c(Br)c1 | 7.86% |
| COc1ccc(C(=O)NCC(c2cccs2)S(=O)(=O)c2ccc(C)cc2)cc1 (stereo not drawn) | 20.9% |
| NC(=O)CCC(NC(=O)c1ccc(Cl)cc1)C(=O)NCCc1ccc2c(c1)OCCO2 (stereo not drawn) | active: 42.2% |
| O=S(=O)(Nc1ccc(-c2ccc(N3CCCC3)nn2)cc1)c1ccc(Br)cc1 | -5.28% |
| COc1cc(Cl)c(C)cc1NC(=O)CN1c2ccccc2S(=O)(=O)c2ccccc21 | 11.5% |
| CCc1ccccc1Nc1nn2c(=O)c3ccc(C(=O)Nc4cc(C)cc(C)c4)cc3nc2s1 | 6.78% |
| COC(=O)c1ccc(CNC(=O)c2ccc3c(c2)NC(=O)CS3)cc1 | active: 37.2% |
| COC(=O)c1ccc(Cn2c(SCc3cccc(C)c3)nc3ccncc32)cc1 | 5.78% |
| Cc1cc(C)c(/C=C/c2onc(C)c2S(=O)(=O)N2CCC(C(=O)N3CCN(c4ccccc4)CC3)CC2)c(C)c1 | -4.57% |
| CCOC(=O)c1sc2ncn(CC(=O)Nc3ccc(C)cc3C)c(=O)c2c1C | -10.6% |
| COc1cccc(NC(=O)c2cn(C3CCCCC3)c(=O)c3c2c2ccccc2n3C)c1 | 15.9% |
| Cc1ccc(-c2ccc(=O)n(C(C)C(=O)Nc3ccccc3Cl)n2)cc1C (stereo not drawn) | 3.09% |
| CC1CCc2nc3ncn(CC(=O)Nc4cccc(C#N)c4)c(=O)c3cc2C1 (stereo not drawn) | 3.48% |
| COc1ccc(S(=O)(=O)N(CC(=O)N2CCC(C)CC2)c2ccc(C)cc2)cc1 | -2.16% |
| Cc1cc(C)c2[nH]c(=O)c(C(c3nnnn3CC3CCCO3)N3CCC(C)CC3)cc2c1 (stereo not drawn) | active: 37.3% |
| COc1ccccc1-c1nn(CCC(=O)Nc2cccc(C(C)=O)c2)c2nc(C)cc(C)c12 | 4.18% |

| SMILES | inhibition |
| --- | --- |
| COc1ccc(CCNC(=O)NCc2noc3ccc(C)cc23)c(OC)c1 | 18% |
| CCN(CC)c1cc2c(cc1F)c(=O)c(S(=O)(=O)c1ccccc1)cn2Cc1ccccc1 | 1.52% |
| Cc1ccc(C(=O)NC2CCCC2)cc1S(=O)(=O)N1CCCCC1 | active: 31.8% |
| COCCn1c(Cc2ccccc2)nnc1SCC(=O)NC1CC1 | active: 32.2% |
| CC(=O)c1cccc(NS(=O)(=O)c2c(C)nc3sc(C)cn3c2=O)c1 | -7.11% |
| CCOC(=O)c1cccc(NC(=O)CCCn2c(C)c3cnn(-c4ccccc4)c(=O)c3c2C)c1 | -6.63% |
| COc1cc(C2CC(=O)Nc3c2c(=O)n(C)c(=O)n3C)cc(OC)c1OC (stereo not drawn) | -2.09% |
| Cc1cccc(-n2ncc(C(=O)N3CCC(C)CC3)c2C2CCN(C(=O)OC(C)(C)C)CC2)c1 | -8.61% |
| Cc1ccc(CNC(=O)CCC(=O)N2CC(C)Sc3ccccc32)cc1 (stereo not drawn) | 12.8% |
| Cc1ccc(NC(=O)c2cc3c(=O)[nH]c4ccccc4c3n2C)cc1F | 5.75% |
| COc1ccc(-c2cc(C(C)=O)c(C)n2CCC(=O)NCc2ccc(F)cc2)cc1 | -4.17% |
| Cc1ccc(OCCn2nnc3sc4c(c3c2=O)CCC(C(C)(C)C)C4)cc1 (stereo not drawn) | 4.31% |
| CC(C)c1ccc(NC(=O)c2cccn2-c2nnc(N3CCCCC3)s2)cc1 | 4.98% |
| CCCOc1cccc(C(=O)N(Cc2cc(OC)c(OC)c(OC)c2)C2CCS(=O)(=O)C2)c1 (stereo not drawn) | -0.835% |
| COc1cccc(Cn2c(=O)n(-c3ccc(Br)cc3F)c(=O)c3sc4ccccc4c32)c1 | 15.3% |
| CCCCNC(=O)CSc1nc2ccccc2nc1Cc1ccc(Cl)cc1 | 6.63% |
| CCOc1cccc2cc(-c3nc4sc5c(c4c(=O)[nH]3)CCC(C)C5)c(=O)oc12 (stereo not drawn) | 19.3% |
| Cc1ccc(NC(=O)CC2Nc3cccc4cccc(c34)NC2=O)cc1 (stereo not drawn) | 12.1% |
| COc1ccc(N(Cc2ccccc2)C(=O)c2nc(SC)ncc2Cl)cc1 | 17.2% |
| COc1ccc(NC(=O)CCNS(=O)(=O)c2cccc3nsnc23)cc1OC | 13.5% |
| COc1ccc(Cl)cc1NC(=O)CCCn1c(C)c2cnn(-c3ccccc3)c(=O)c2c1C | -3.7% |
| COc1ccc(C2=Nc3ccc(C)cc3NC(c3ccc(Cl)cc3)=N2)cc1 | 9.61% |
| Cc1ccc(Cl)cc1N1C(=O)N(Cc2ccc(C#N)cc2)c2ccccc2S1(=O)=O | -15% |
| COc1ccc(CNC(=O)c2cccc(NC(=O)N3CCSc4ncccc43)c2)cc1 | 10.1% |
